# Measured values: the supplement of paper PMC8728848
# This is one part of the list.
# How the values were obtained:
# Assay in all cases: glycan array binding signal (z-score within array); higher = stronger binding
# Conditions in all cases: glycan notation: IUPAC condensed, linker removed
# [1] = target: Neu5Ac(a2-6)Gal(b1-4)GlcNAc(b1-2)[Neu5Ac(a2-6)Gal(b1-4)GlcNAc(b1-4)]Man(a1-3)[GlcNAc(b1-4)][Neu5Ac(a2-6)Gal(b1-4)GlcNAc(b1-2)[Neu5Ac(a2-6)Gal(b1-4)GlcNAc(b1-6)]Man(a1-6)]Man(b1-4)GlcNAc(b1-4)GlcNAc
# How it was run: (§1)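 The Consortium for Functional Glycomics database supplied 3228 glycan arrays, of which those lacking an available protein sequence were dropped. The binding signal, a within-array Z-score, was averaged across arrays of the same protein sequence and across linkers. Negative scores can be read as non-binding.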
# [2] = target: Neu5Ac(a2-6)Gal(b1-4)GlcNAc(b1-2)[Neu5Ac(a2-6)Gal(b1-4)GlcNAc(b1-4)]Man(a1-3)[GlcNAc(b1-4)][Neu5Ac(a2-6)Gal(b1-4)GlcNAc(b1-4)Man(a1-6)]Man(b1-4)GlcNAc(b1-4)GlcNAc
# How it was run: as §1
# [3] = target: Neu5Ac(a2-6)Gal(b1-4)GlcNAc(b1-2)[Neu5Ac(a2-6)Gal(b1-4)GlcNAc(b1-6)]Man(a1-6)[Neu5Ac(a2-6)Gal(b1-4)GlcNAc(b1-2)Man(a1-3)][GlcNAc(b1-4)]Man(b1-4)GlcNAc(b1-4)GlcNAc
# How it was run: as §1
# [4] = target: Neu5Ac(a2-6)Gal(b1-4)GlcNAc(b1-3)Gal(b1-3)GlcNAc
# How it was run: as §1
# [5] = target: Neu5Ac(a2-6)Gal(b1-4)GlcNAc(b1-3)Gal(b1-4)GlcNAc
# How it was run: as §1
# [6] = target: Neu5Ac(a2-6)Gal(b1-4)GlcNAc(b1-3)Gal(b1-4)GlcNAc(b1-2)Man(a1-3)[Neu5Ac(a2-6)Gal(b1-4)GlcNAc(b1-3)Gal(b1-4)GlcNAc(b1-2)Man(a1-6)]GalNAc
# How it was run: as §1
# [7] = target: Neu5Ac(a2-6)Gal(b1-4)GlcNAc(b1-3)Gal(b1-4)GlcNAc(b1-3)Gal(b1-4)GlcNAc
# How it was run: as §1
# [8] = target: Neu5Ac(a2-6)Gal(b1-4)GlcNAc(b1-3)Gal(b1-4)GlcNAc(b1-3)Gal(b1-4)GlcNAc(b1-2)Man(a1-3)[Neu5Ac(a2-6)Gal(b1-4)GlcNAc(b1-3)Gal(b1-4)GlcNAc(b1-3)Gal(b1-4)GlcNAc(b1-2)Man(a1-6)]GalNAc
# How it was run: as §1
# [9] = target: Neu5Ac(a2-6)Gal(b1-4)GlcNAc(b1-3)Gal(b1-4)GlcNAc(b1-3)GalNAc
# How it was run: as §1
# [10] = target: Neu5Ac(a2-6)Gal(b1-4)GlcNAc(b1-3)Gal(b1-4)GlcNAc(b1-3)[Neu5Ac(a2-6)Gal(b1-4)GlcNAc(b1-3)Gal(b1-4)GlcNAc(b1-6)]GalNAc
# How it was run: as §1
# [11] = target: Neu5Ac(a2-6)Gal(b1-4)GlcNAc(b1-3)Gal(b1-4)GlcNAc(b1-6)[Gal(b1-3)]GalNAc
# How it was run: as §1
# [12] = target: Neu5Ac(a2-6)Gal(b1-4)GlcNAc(b1-3)Gal(b1-4)[Fuc(a1-3)]GlcNAc(b1-3)Gal(b1-4)[Fuc(a1-3)]GlcNAc
# How it was run: as §1
# [13] = target: Neu5Ac(a2-6)Gal(b1-4)GlcNAc(b1-3)GalNAc
# How it was run: as §1
# [14] = target: Neu5Ac(a2-6)Gal(b1-4)GlcNAc(b1-3)[Neu5Ac(a2-6)Gal(b1-4)GlcNAc(b1-6)]GalNAc
# How it was run: as §1
# [15] = target: Neu5Ac(a2-6)Gal(b1-4)GlcNAc(b1-6)GalNAc
# How it was run: as §1
# [16] = target: Neu5Ac(a2-6)Gal(b1-4)GlcNAc(b1-6)[Gal(b1-3)GlcNAc(b1-3)]Gal(b1-4)Glc
# How it was run: as §1
# [17] = target: Neu5Ac(a2-6)Gal(b1-4)GlcNAc(b1-6)[Gal(b1-3)]GalNAc
# How it was run: as §1
# [18] = target: Neu5Ac(a2-6)Gal(b1-4)GlcNAc6S
# How it was run: as §1
# [19] = target: Neu5Ac(a2-6)GalNAc
# How it was run: as §1
# [20] = target: Neu5Ac(a2-6)GalNAc(b1-4)GlcNAc
# How it was run: as §1
# [21] = target: Neu5Ac(a2-6)GalNAc(b1-4)GlcNAc6S
# How it was run: as §1
# [22] = target: Neu5Ac(a2-6)GlcNAc(b1-4)GlcNAc
# How it was run: as §1
# [23] = target: Neu5Ac(a2-6)GlcNAc(b1-4)GlcNAc(b1-4)GlcNAc
# How it was run: as §1
# [24] = target: Neu5Ac(a2-8)Neu5Ac
# How it was run: as §1
# [25] = target: Neu5Ac(a2-8)Neu5Ac(a2-3)Gal(b1-3)GalNAc(b1-4)[Neu5Ac(a2-3)]Gal(b1-4)Glc
# How it was run: as §1
# [26] = target: Neu5Ac(a2-8)Neu5Ac(a2-3)Gal(b1-3)GalNAc(b1-4)[Neu5Ac(a2-8)Neu5Ac(a2-3)]Gal(b1-4)Glc
# How it was run: as §1
# [27] = target: Neu5Ac(a2-8)Neu5Ac(a2-3)Gal(b1-4)Glc
# How it was run: as §1
# [28] = target: Neu5Ac(a2-8)Neu5Ac(a2-3)Gal(b1-4)GlcNAc
# How it was run: as §1
# [29] = target: Neu5Ac(a2-8)Neu5Ac(a2-3)[Gal(b1-3)GalNAc(b1-4)]Gal(b1-4)Glc
# How it was run: as §1
# [30] = target: Neu5Ac(a2-8)Neu5Ac(a2-3)[GalNAc(b1-4)]Gal(b1-4)Glc
# How it was run: as §1
# [31] = target: Neu5Ac(a2-8)Neu5Ac(a2-8)Neu5Ac
# How it was run: as §1
# [32] = target: Neu5Ac(a2-8)Neu5Ac(a2-8)Neu5Ac(a2-3)Gal(b1-4)Glc
# How it was run: as §1
# [33] = target: Neu5Ac(a2-8)Neu5Ac(a2-8)Neu5Ac(a2-3)[Gal(b1-3)GalNAc(b1-4)]Gal(b1-4)Glc
# How it was run: as §1
# [34] = target: Neu5Ac(a2-8)Neu5Ac(a2-8)Neu5Ac(a2-3)[GalNAc(b1-4)]Gal(b1-4)Glc
# How it was run: as §1
# [35] = target: Neu5Ac(a2-8)Neu5Ac(a2-8)Neu5Ac(a2-8)Neu5Ac(a2-3)[GalNAc(b1-4)]Gal(b1-4)Glc
# How it was run: as §1
# [36] = target: Neu5Ac(a2-8)Neu5Gc(a2-3)Gal(b1-4)GlcNAc
# How it was run: as §1
# [37] = target: Neu5Ac(b2-6)Gal(b1-4)GlcNAc
# How it was run: as §1
# [38] = target: Neu5Ac(b2-6)GalNAc
# How it was run: as §1
# [39] = target: Neu5Ac9Ac(a2-3)Gal(b1-3)GlcNAc
# How it was run: as §1
# [40] = target: Neu5Ac9Ac(a2-3)Gal(b1-4)GlcNAc
# How it was run: as §1
# [41] = target: Neu5Ac9Ac(a2-6)Gal(b1-4)GlcNAc
# How it was run: as §1
# [42] = target: Neu5Gc(a2-3)Gal(b1-3)GlcNAc
# How it was run: as §1
# [43] = target: Neu5Gc(a2-3)Gal(b1-3)[Fuc(a1-4)]GlcNAc
# How it was run: as §1
# [44] = target: Neu5Gc(a2-3)Gal(b1-4)Glc
# How it was run: as §1
# [45] = target: Neu5Gc(a2-3)Gal(b1-4)GlcNAc
# How it was run: as §1
# [46] = target: Neu5Gc(a2-3)Gal(b1-4)GlcNAc(b1-3)Gal(b1-4)GlcNAc(b1-2)Man(a1-3)[Neu5Gc(a2-3)Gal(b1-4)GlcNAc(b1-3)Gal(b1-4)GlcNAc(b1-2)Man(a1-6)]Man(b1-4)GlcNAc(b1-4)GlcNAc
# How it was run: as §1
# [47] = target: Neu5Gc(a2-3)Gal(b1-4)[Fuc(a1-3)]GlcNAc
# How it was run: as §1
# [48] = target: Neu5Gc(a2-3)Gal(b1-4)[Fuc(a1-4)]GlcNAc
# How it was run: as §1
# [49] = target: Neu5Gc(a2-6)Gal(b1-4)GlcNAc
# How it was run: as §1
# [50] = target: Neu5Gc(a2-6)GalNAc
# How it was run: as §1
# [51] = target: Neu5Gc(a2-8)Neu5Ac(a2-3)Gal(b1-4)GlcNAc
# How it was run: as §1
# [52] = target: Neu5Gc(a2-8)Neu5Gc(a2-3)Gal(b1-4)GlcNAc
# How it was run: as §1
# [53] = target: Neu5Gc(a2-8)Neu5Gc(a2-3)Gal(b1-4)GlcNAc(b1-3)Gal(b1-4)GlcNAc
# How it was run: as §1
# [54] = target: Neu5Gc(a2-8)Neu5Gc(a2-6)Gal(b1-4)GlcNAc
# How it was run: as §1
# [55] = target: Neu5Gc(b2-6)Gal(b1-4)GlcNAc
# How it was run: as §1
binder,measurement,setting,value
"Nictaba (Nicotiana tabacum), Q94EW1 (protein) MQGQWIAARDLSITWVDNPQYWTWKTVDPNIEVAELRRVAWLDIYGKIETKNLIRKTSYAVYLVFKLTDNPRELERATASLRFVNEVAEGAGIEGTTVFISKKKKLPGELGRFPHLRSDGWLEIKLGEFFNNLGEDGEVEMRLMEINDKTWKSGIIVKGFDIRPN",glycan array binding signal (z-score),[1],-0.376
same,glycan array binding signal (z-score),[2],-0.379
same,glycan array binding signal (z-score),[3],-0.386
same,glycan array binding signal (z-score),[4],-0.254
same,glycan array binding signal (z-score),[5],-0.222
same,glycan array binding signal (z-score),[6],1.27
same,glycan array binding signal (z-score),[7],-0.286
same,glycan array binding signal (z-score),[8],0.027
same,glycan array binding signal (z-score),[9],-0.386
same,glycan array binding signal (z-score),[10],-0.384
same,glycan array binding signal (z-score),[11],-0.383
same,glycan array binding signal (z-score),[12],-0.268
same,glycan array binding signal (z-score),[13],-0.263
same,glycan array binding signal (z-score),[14],-0.384
same,glycan array binding signal (z-score),[15],-0.381
same,glycan array binding signal (z-score),[16],-0.387
same,glycan array binding signal (z-score),[17],-0.386
same,glycan array binding signal (z-score),[18],-0.213
same,glycan array binding signal (z-score),[19],-0.295
same,glycan array binding signal (z-score),[20],-0.252
same,glycan array binding signal (z-score),[21],-0.388
same,glycan array binding signal (z-score),[22],-0.296
same,glycan array binding signal (z-score),[23],-0.259
same,glycan array binding signal (z-score),[24],-0.24
same,glycan array binding signal (z-score),[25],-0.385
same,glycan array binding signal (z-score),[26],-0.331
same,glycan array binding signal (z-score),[27],-0.236
same,glycan array binding signal (z-score),[28],-0.384
same,glycan array binding signal (z-score),[29],-0.3
same,glycan array binding signal (z-score),[30],-0.295
same,glycan array binding signal (z-score),[31],-0.28
same,glycan array binding signal (z-score),[32],-0.282
same,glycan array binding signal (z-score),[33],-0.384
same,glycan array binding signal (z-score),[34],-0.287
same,glycan array binding signal (z-score),[35],-0.244
same,glycan array binding signal (z-score),[36],-0.386
same,glycan array binding signal (z-score),[37],-0.273
same,glycan array binding signal (z-score),[38],-0.315
same,glycan array binding signal (z-score),[39],-0.317
same,glycan array binding signal (z-score),[40],-0.211
same,glycan array binding signal (z-score),[41],-0.303
same,glycan array binding signal (z-score),[42],-0.294
same,glycan array binding signal (z-score),[43],-0.273
same,glycan array binding signal (z-score),[44],-0.254
same,glycan array binding signal (z-score),[45],-0.212
same,glycan array binding signal (z-score),[46],0.883
same,glycan array binding signal (z-score),[47],-0.366
same,glycan array binding signal (z-score),[48],-0.239
same,glycan array binding signal (z-score),[49],-0.286
same,glycan array binding signal (z-score),[50],-0.271
same,glycan array binding signal (z-score),[51],-0.386
same,glycan array binding signal (z-score),[52],-0.388
same,glycan array binding signal (z-score),[53],-0.388
same,glycan array binding signal (z-score),[54],-0.385
same,glycan array binding signal (z-score),[55],-0.289
